Test results: paper PMC5908291, “The JmjN domain as a dimerization interface and a targeted inhibitor of KDM4 demethylase activity” (Oncotarget, 2018)
No constants are given. Whether binding was seen depends on the method and setting. Binding seen in cells or lysates may run through a third protein. Some binding calls cover weakened binding; strength is not graded here. For part of these data: Where a sequence is shown, tags or fusion partners need not be part of it.

By UniProt entry, the sequences of proteins in these tests, tags left out. Residues count along the entry.
UniProt O94953, residues 1-57: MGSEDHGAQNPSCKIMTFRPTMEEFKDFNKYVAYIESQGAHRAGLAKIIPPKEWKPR

B2: KDM4C with a C-terminal YN or YC tag (enzyme, human, UniProt Q9H3R0 1-1056, looked up)
chain: MEVAEVESPLNPSCKIMTFRPSMEEFREFNKYLAYMESKGAHRAGLAKVIPPKEWKPRQCYDDIDNLLIPAPIQQMVTGQSGLFTQYNIQKKAMTVKEFRQLANSGKYCTPRYLDYEDLERKYWKNLTFVAPIYGADINGSIYDEGVDEWNIARLNTVLDVVEEECGISIEGVNTPYLYFGMWKTTFAWHTEDMDLYSINYLHFGEPKSWYAIPPEHGKRLERLAQGFFPSSSQGCDAFLRHKMTLISPSVLKKYGIPFDKITQEAGEFMITFPYGYHAGFNHGFNCAESTNFATVRWIDYGKVAKLCTCRKDMVKISMDIFVRKFQPDRYQLWKQGKDIYTIDHTKPTPASTPEVKAWLQRRRKVRKASRSFQCARSTSKRPKADEEEEVSDEVDGAEVPNPDSVTDDLKVSEKSEAAVKLRNTEASSEEESSASRMQVEQNLSDHIKLSGNSCLSTSVTEDIKTEDDKAYAYRSVPSISSEADDSIPLSSGYEKPEKSDPSELSWPKSPESCSSVAESNGVLTEGEESDVESHGNGLEPGEIPAVPSGERNSFKVPSIAEGENKTSKSWRHPLSRPPARSPMTLVKQQAPSDEELPEVLSIEEEVEETESWAKPLIHLWQTKSPNFAAEQEYNATVARMKPHCAICTLLMPYHKPDSSNEENDARWETKLDEVVTSEGKTKPLIPEMCFIYSEENIEYSPPNAFLEEDGTSLLISCAKCCVRVHASCYGIPSHEICDGWLCARCKRNAWTAECCLCNLRGGALKQTKNNKWAHVMCAVAVPEVRFTNVPERTQIDVGRIPLQRLKLKCIFCRHRVKRVSGACIQCSYGRCPASFHVTCAHAAGVLMEPDDWPYVVNITCFRHKVNPNVKSKACEKVISVGQTVITKHRNTRYYSCRVMAVTSQTFYEVMFDDGSFSRDTFPEDIVSRDCLKLGPPAEGEVVQVKWPDGKLYGAKYFGSNIAHMYQVEFEDGSQIAMKREDIYTLDEELPKRVKARFSTASDMRFEDTFYGADIIQGERKRQRVLSSRFKNEYVADPVYRTFLKSSFQKKCQKRQ
notes: Lysine demethylase KDM4C (GASC1), human, ORF amplified from pCMV-HA-GASC1; 1056 aa as printed; BiFC pair: one molecule stands for the YN and the YC conjugate; also called KDM4C-YN; KDM4C-YC; source: HEK293, transiently transfected, in cells; not shown: YN (Venus YFP residues 1-172) on one copy or YC (Venus YFP residues 155-238) on the other, C-terminal, kept

Legend:
[1] = target: isolated JmjN domain of KDM4B with a C-terminal YN or YC tag (human) (UniProt O94953); experiment: split reporter; BiFC (Venus YN + YC), live cell confocal imaging of HEK293 cells 20 h after co-transfection, 37°C, 5% CO2
[2] = target: isolated JmjN domain of KDM4B with a C-terminal YN or YC tag (human) (UniProt O94953); experiment: split reporter; BiFC (Venus YN + YC), immunofluorescence microscopy of fixed, permeabilised HEK293 cells 20 h after co-transfection; transfected cells marked by anti-YFP, anti-KDM4C or anti-HA
[3] = target: B2; experiment: split reporter; BiFC (Venus YN + YC), live cell confocal imaging of HEK293 cells 20 h after co-transfection, 37°C, 5% CO2
[4] = target: T1, KDM4A with a C-terminal YN or YC tag (human) (UniProt O75164); experiment: as above
T1 sequence: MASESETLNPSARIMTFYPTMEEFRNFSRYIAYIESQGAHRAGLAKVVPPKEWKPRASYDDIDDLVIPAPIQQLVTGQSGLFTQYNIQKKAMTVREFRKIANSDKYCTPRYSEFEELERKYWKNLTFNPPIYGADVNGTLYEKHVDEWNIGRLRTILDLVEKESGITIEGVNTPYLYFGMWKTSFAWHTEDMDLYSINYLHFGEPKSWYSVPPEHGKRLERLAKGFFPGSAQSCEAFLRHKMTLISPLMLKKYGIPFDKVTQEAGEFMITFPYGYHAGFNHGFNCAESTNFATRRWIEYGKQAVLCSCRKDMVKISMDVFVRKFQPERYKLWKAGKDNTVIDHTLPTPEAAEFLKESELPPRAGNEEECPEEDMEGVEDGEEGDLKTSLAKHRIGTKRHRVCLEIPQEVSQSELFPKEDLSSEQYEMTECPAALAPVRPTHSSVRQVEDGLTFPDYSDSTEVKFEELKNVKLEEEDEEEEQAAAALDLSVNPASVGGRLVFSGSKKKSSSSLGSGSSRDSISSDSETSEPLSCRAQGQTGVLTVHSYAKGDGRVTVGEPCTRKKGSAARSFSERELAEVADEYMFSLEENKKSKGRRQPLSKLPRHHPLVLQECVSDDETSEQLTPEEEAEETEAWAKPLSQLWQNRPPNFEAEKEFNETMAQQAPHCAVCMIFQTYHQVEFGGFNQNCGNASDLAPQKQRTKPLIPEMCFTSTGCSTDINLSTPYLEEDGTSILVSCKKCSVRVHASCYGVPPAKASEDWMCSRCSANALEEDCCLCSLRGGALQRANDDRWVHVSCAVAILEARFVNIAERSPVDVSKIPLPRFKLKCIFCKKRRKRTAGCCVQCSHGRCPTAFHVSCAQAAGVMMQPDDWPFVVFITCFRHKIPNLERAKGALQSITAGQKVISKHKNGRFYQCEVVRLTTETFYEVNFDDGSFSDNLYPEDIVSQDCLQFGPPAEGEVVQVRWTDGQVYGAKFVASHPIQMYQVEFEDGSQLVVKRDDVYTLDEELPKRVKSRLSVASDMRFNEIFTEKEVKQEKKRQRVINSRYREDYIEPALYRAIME

[5] = target: B2; experiment: split reporter; BiFC (Venus YN + YC), immunofluorescence microscopy of fixed, permeabilised HEK293 cells 20 h after co-transfection; transfected cells marked by anti-YFP, anti-KDM4C or anti-HA
[6] = target: T1, KDM4A with a C-terminal YN or YC tag (human); experiment: as above
[7] = target: KDM4C lacking the JmjC domain, with a C-terminal YN or YC tag (human) (UniProt Q9H3R0); experiment: as above

isolated JmjN domain of KDM4B with a C-terminal YN or YC tag (from UniProt O94953 1-57) (domain or fragment)
binding [1]: binds
binding [2]: binds

B1: KDM4A with a C-terminal YN or YC tag (enzyme, human, UniProt O75164 1-1064, looked up)
chain: MASESETLNPSARIMTFYPTMEEFRNFSRYIAYIESQGAHRAGLAKVVPPKEWKPRASYDDIDDLVIPAPIQQLVTGQSGLFTQYNIQKKAMTVREFRKIANSDKYCTPRYSEFEELERKYWKNLTFNPPIYGADVNGTLYEKHVDEWNIGRLRTILDLVEKESGITIEGVNTPYLYFGMWKTSFAWHTEDMDLYSINYLHFGEPKSWYSVPPEHGKRLERLAKGFFPGSAQSCEAFLRHKMTLISPLMLKKYGIPFDKVTQEAGEFMITFPYGYHAGFNHGFNCAESTNFATRRWIEYGKQAVLCSCRKDMVKISMDVFVRKFQPERYKLWKAGKDNTVIDHTLPTPEAAEFLKESELPPRAGNEEECPEEDMEGVEDGEEGDLKTSLAKHRIGTKRHRVCLEIPQEVSQSELFPKEDLSSEQYEMTECPAALAPVRPTHSSVRQVEDGLTFPDYSDSTEVKFEELKNVKLEEEDEEEEQAAAALDLSVNPASVGGRLVFSGSKKKSSSSLGSGSSRDSISSDSETSEPLSCRAQGQTGVLTVHSYAKGDGRVTVGEPCTRKKGSAARSFSERELAEVADEYMFSLEENKKSKGRRQPLSKLPRHHPLVLQECVSDDETSEQLTPEEEAEETEAWAKPLSQLWQNRPPNFEAEKEFNETMAQQAPHCAVCMIFQTYHQVEFGGFNQNCGNASDLAPQKQRTKPLIPEMCFTSTGCSTDINLSTPYLEEDGTSILVSCKKCSVRVHASCYGVPPAKASEDWMCSRCSANALEEDCCLCSLRGGALQRANDDRWVHVSCAVAILEARFVNIAERSPVDVSKIPLPRFKLKCIFCKKRRKRTAGCCVQCSHGRCPTAFHVSCAQAAGVMMQPDDWPFVVFITCFRHKIPNLERAKGALQSITAGQKVISKHKNGRFYQCEVVRLTTETFYEVNFDDGSFSDNLYPEDIVSQDCLQFGPPAEGEVVQVRWTDGQVYGAKFVASHPIQMYQVEFEDGSQLVVKRDDVYTLDEELPKRVKSRLSVASDMRFNEIFTEKEVKQEKKRQRVINSRYREDYIEPALYRAIME
notes: Lysine demethylase KDM4A (JmjD2A), human, ORF amplified from pCMV-HA-JmjD2A; BiFC pair: one molecule stands for the YN and the YC conjugate; also called KDM4A-YN; KDM4A-YC; source: HEK293, transiently transfected, in cells; not shown: YN (Venus YFP residues 1-172) on one copy or YC (Venus YFP residues 155-238) on the other, C-terminal, kept
binding [3]: binds
binding [4]: binds
binding [5]: binds
binding [6]: binds

B2
binding [3]: binds
binding [5]: binds

B3: KDM4C lacking the JmjC domain, with a C-terminal YN or YC tag (enzyme, UniProt Q9H3R0)
chain: MEVAEVESPLNPSCKIMTFRPSMEEFREFNKYLAYMESKGAHRAGLAKVIPPKEWKPRQCYDDIDNLLIPAPIQQMVTGQSGLFTQYNIQKKAMTVKEFRQLANSGKYCTPRYLDYEDLERKYWKNLTFVAPIYGADINGSIYRKDMVKISMDIFVRKFQPDRYQLWKQGKDIYTIDHTKPTPASTPEVKAWLQRRRKVRKASRSFQCARSTSKRPKADEEEEVSDEVDGAEVPNPDSVTDDLKVSEKSEAAVKLRNTEASSEEESSASRMQVEQNLSDHIKLSGNSCLSTSVTEDIKTEDDKAYAYRSVPSISSEADDSIPLSSGYEKPEKSDPSELSWPKSPESCSSVAESNGVLTEGEESDVESHGNGLEPGEIPAVPSGERNSFKVPSIAEGENKTSKSWRHPLSRPPARSPMTLVKQQAPSDEELPEVLSIEEEVEETESWAKPLIHLWQTKSPNFAAEQEYNATVARMKPHCAICTLLMPYHKPDSSNEENDARWETKLDEVVTSEGKTKPLIPEMCFIYSEENIEYSPPNAFLEEDGTSLLISCAKCCVRVHASCYGIPSHEICDGWLCARCKRNAWTAECCLCNLRGGALKQTKNNKWAHVMCAVAVPEVRFTNVPERTQIDVGRIPLQRLKLKCIFCRHRVKRVSGACIQCSYGRCPASFHVTCAHAAGVLMEPDDWPYVVNITCFRHKVNPNVKSKACEKVISVGQTVITKHRNTRYYSCRVMAVTSQTFYEVMFDDGSFSRDTFPEDIVSRDCLKLGPPAEGEVVQVKWPDGKLYGAKYFGSNIAHMYQVEFEDGSQIAMKREDIYTLDEELPKRVKARFSTASDMRFEDTFYGADIIQGERKRQRVLSSRFKNEYVADPVYRTFLKSSFQKKCQKRQ
binding [7]: binds
